Assay results published in a collection of fitness landscapes (doi:10.1126/science.1257360).
Some of the results follow.

B1: PhoQ; a variant is named by its letters at X, in order, P23837 (parent)
chain: MKKLLRLFFPLSLRVRFLLATAAVVLVLSLAYGMVALIGYSVSFDKTTFRLLRGESNLFYTLAKWENNKLHVELPENIDKQSPTMTLIYDENGQLLWAQRDVPWLMKMIQPDWLKSNGFHEIEADVNDTSLLLSGDHSIQQQLQEVREDDDDAEMTHSVAVNVYPATSRMPKLTIVVVDTIPVELKSSYMVWSWFIYVLSANLLLVIPLLWVAAWWSLRPIEALAKEVRELEEHNRELLNPATTRELTSLVRNLNRLLKSERERYDKYRTTLTDLTHSLKTPLXXLQXXLRSLRSEKMSVSDAEPVMLEQISRISQQIGYYLHRASMRGGTLLSRELHPVAPLLDNLTSALNKVYQRKGVNISLDISPEISFVGEQNDFVEVMGNVLDNACKYCLEFVEISARQTDEHLYIVVEDDGPGIPLSKREVIFDRGQRVDTLRPGQGVGLAVAREITEQYEGKIVAGESMLGGARMEVIFGRQHSAPKDE

Variants of: B1
Assay: enrichment ratio after two sorts for PhoP signalling (ratio (wild type AVST 3.29)); higher = more functional
Conditions: with PhoP (E. coli)

SGRH and WIDY cannot be ordered by enrichment ratio: ≤ 0.25 for the first, ≤ 0.25 for the second.

FMAF and SLFT cannot be ordered by enrichment ratio: ≤ 0.25 for the first, ≤ 0.25 for the second.

NGRY and ICTH cannot be ordered by enrichment ratio: ≤ 0.25 for the first, ≤ 0.25 for the second.

First: LPEF
Second: EAVH
The enrichment ratio of the first is higher: 0.394 for the first, ≤ 0.25 for the second.

WHGG and YQGA cannot be ordered by enrichment ratio: ≤ 0.25 for the first, ≤ 0.25 for the second.

LVMI and HRII cannot be ordered by enrichment ratio: ≤ 0.25 for the first, ≤ 0.25 for the second.

Compared with FFNP, SEVK is higher in enrichment ratio: ≤ 0.25 for the first, 12.3 for the second.

RGYN and KMST cannot be ordered by enrichment ratio: ≤ 0.25 for the first, ≤ 0.25 for the second.

KIHV and IHSL cannot be ordered by enrichment ratio: ≤ 0.25 for the first, ≤ 0.25 for the second.

YRLI and KQRI cannot be ordered by enrichment ratio: ≤ 0.25 for the first, ≤ 0.25 for the second.

RHPC and HGVE cannot be ordered by enrichment ratio: ≤ 0.25 for the first, ≤ 0.25 for the second.

TPTE and HSVY cannot be ordered by enrichment ratio: ≤ 0.25 for the first, ≤ 0.25 for the second.

First: ATCV
Second: SWSD
The enrichment ratio of the first is higher: 15.4 for the first, ≤ 0.25 for the second.

VSHF and HYVI cannot be ordered by enrichment ratio: ≤ 0.25 for the first, ≤ 0.25 for the second.

DFWP and TFYC cannot be ordered by enrichment ratio: ≤ 0.25 for the first, ≤ 0.25 for the second.

Compared with TCHM, LYTD is lower in enrichment ratio: 3.39 for the first, ≤ 0.25 for the second.

GYPM and GYTR cannot be ordered by enrichment ratio: ≤ 0.25 for the first, ≤ 0.25 for the second.

FKFG and KVCQ cannot be ordered by enrichment ratio: ≤ 0.25 for the first, ≤ 0.25 for the second.

EHDG and TEFE cannot be ordered by enrichment ratio: ≤ 0.25 for the first, ≤ 0.25 for the second.

VTYH and WFTH cannot be ordered by enrichment ratio: ≤ 0.25 for the first, ≤ 0.25 for the second.

TWQT and VSLP cannot be ordered by enrichment ratio: ≤ 0.25 for the first, ≤ 0.25 for the second.

NPMR and WRIW cannot be ordered by enrichment ratio: ≤ 0.25 for the first, ≤ 0.25 for the second.

First: VKVD
Second: QSWM
The enrichment ratio of the first is lower: ≤ 0.25 for the first, 11.9 for the second.

HSDS and RIPM cannot be ordered by enrichment ratio: ≤ 0.25 for the first, ≤ 0.25 for the second.

QAPW and TSPS cannot be ordered by enrichment ratio: ≤ 0.25 for the first, ≤ 0.25 for the second.

SFNR and NFEN cannot be ordered by enrichment ratio: ≤ 0.25 for the first, ≤ 0.25 for the second.

TPKK and ESTW cannot be ordered by enrichment ratio: ≤ 0.25 for the first, ≤ 0.25 for the second.

IMQE and FPPC cannot be ordered by enrichment ratio: ≤ 0.25 for the first, ≤ 0.25 for the second.

VFWP and WTIY cannot be ordered by enrichment ratio: ≤ 0.25 for the first, ≤ 0.25 for the second.

RTLN and SLKH cannot be ordered by enrichment ratio: ≤ 0.25 for the first, ≤ 0.25 for the second.

Going from WHRY to FKFI, the enrichment ratio falls from 0.322 to ≤ 0.25.

DKRD and TIII cannot be ordered by enrichment ratio: ≤ 0.25 for the first, ≤ 0.25 for the second.

FHPF and DALG cannot be ordered by enrichment ratio: ≤ 0.25 for the first, ≤ 0.25 for the second.

RSLT and FKDT cannot be ordered by enrichment ratio: ≤ 0.25 for the first, ≤ 0.25 for the second.

NGTK and CIFH cannot be ordered by enrichment ratio: ≤ 0.25 for the first, ≤ 0.25 for the second.

VKFM and SHHP cannot be ordered by enrichment ratio: ≤ 0.25 for the first, ≤ 0.25 for the second.

First: SMSC
Second: FRDT
The enrichment ratio of the first is higher: 8.8 for the first, ≤ 0.25 for the second.

SDTD and FGYY cannot be ordered by enrichment ratio: ≤ 0.25 for the first, ≤ 0.25 for the second.

RQPG and GEGQ cannot be ordered by enrichment ratio: ≤ 0.25 for the first, ≤ 0.25 for the second.

VRVA and APVH cannot be ordered by enrichment ratio: ≤ 0.25 for the first, ≤ 0.25 for the second.

PMGE and VFPM cannot be ordered by enrichment ratio: ≤ 0.25 for the first, ≤ 0.25 for the second.

ERRI and FTLP cannot be ordered by enrichment ratio: ≤ 0.25 for the first, ≤ 0.25 for the second.

MNIY and FLWT cannot be ordered by enrichment ratio: ≤ 0.25 for the first, ≤ 0.25 for the second.

EETT and MPSN cannot be ordered by enrichment ratio: ≤ 0.25 for the first, ≤ 0.25 for the second.

VIYY and VGIL cannot be ordered by enrichment ratio: ≤ 0.25 for the first, ≤ 0.25 for the second.

VELY and YGWV cannot be ordered by enrichment ratio: ≤ 0.25 for the first, ≤ 0.25 for the second.

PAPD and GFPY cannot be ordered by enrichment ratio: ≤ 0.25 for the first, ≤ 0.25 for the second.

Compared with SMGD, NLHM is lower in enrichment ratio: 1.08 for the first, ≤ 0.25 for the second.

WYGP and RAQH cannot be ordered by enrichment ratio: ≤ 0.25 for the first, ≤ 0.25 for the second.

WCQP and IMTF cannot be ordered by enrichment ratio: ≤ 0.25 for the first, ≤ 0.25 for the second.

MGTF and HGCC cannot be ordered by enrichment ratio: ≤ 0.25 for the first, ≤ 0.25 for the second.

IQPV and QVMN cannot be ordered by enrichment ratio: ≤ 0.25 for the first, ≤ 0.25 for the second.

YCVW and WCLQ cannot be ordered by enrichment ratio: ≤ 0.25 for the first, ≤ 0.25 for the second.

QWLC and MPCK cannot be ordered by enrichment ratio: ≤ 0.25 for the first, ≤ 0.25 for the second.

RRYK and WEQS cannot be ordered by enrichment ratio: ≤ 0.25 for the first, ≤ 0.25 for the second.

NIFD and MYKQ cannot be ordered by enrichment ratio: ≤ 0.25 for the first, ≤ 0.25 for the second.

TNFD and RQCL cannot be ordered by enrichment ratio: ≤ 0.25 for the first, ≤ 0.25 for the second.

YRPL and RGRA cannot be ordered by enrichment ratio: ≤ 0.25 for the first, ≤ 0.25 for the second.

HCCR and SKME cannot be ordered by enrichment ratio: ≤ 0.25 for the first, ≤ 0.25 for the second.

YTTT and TCSP cannot be ordered by enrichment ratio: ≤ 0.25 for the first, ≤ 0.25 for the second.

KSFC and WQYP cannot be ordered by enrichment ratio: ≤ 0.25 for the first, ≤ 0.25 for the second.

NSVP and YADG cannot be ordered by enrichment ratio: ≤ 0.25 for the first, ≤ 0.25 for the second.

TEDP and PYFC cannot be ordered by enrichment ratio: ≤ 0.25 for the first, ≤ 0.25 for the second.

EIRK and NPYC cannot be ordered by enrichment ratio: ≤ 0.25 for the first, ≤ 0.25 for the second.

TYCT and DSLM cannot be ordered by enrichment ratio: ≤ 0.25 for the first, ≤ 0.25 for the second.

RDID and GHNF cannot be ordered by enrichment ratio: ≤ 0.25 for the first, ≤ 0.25 for the second.

MSPI and QMAA cannot be ordered by enrichment ratio: ≤ 0.25 for the first, ≤ 0.25 for the second.

PKMC and SHHE cannot be ordered by enrichment ratio: ≤ 0.25 for the first, ≤ 0.25 for the second.

HVLA and WTYK cannot be ordered by enrichment ratio: ≤ 0.25 for the first, ≤ 0.25 for the second.

FTTV and EAEW cannot be ordered by enrichment ratio: ≤ 0.25 for the first, ≤ 0.25 for the second.

AARF and PSKA cannot be ordered by enrichment ratio: ≤ 0.25 for the first, ≤ 0.25 for the second.

WVFD and FPIM cannot be ordered by enrichment ratio: ≤ 0.25 for the first, ≤ 0.25 for the second.

RRHT and PVAF cannot be ordered by enrichment ratio: ≤ 0.25 for the first, ≤ 0.25 for the second.

Compared with SQMQ, TFHA is lower in enrichment ratio: 7.7 for the first, ≤ 0.25 for the second.

KGQP and LKSP cannot be ordered by enrichment ratio: ≤ 0.25 for the first, ≤ 0.25 for the second.

TQHR and DQLY cannot be ordered by enrichment ratio: ≤ 0.25 for the first, ≤ 0.25 for the second.

IGYV and SGAP cannot be ordered by enrichment ratio: ≤ 0.25 for the first, ≤ 0.25 for the second.

Compared with TCSG, MYIF is lower in enrichment ratio: 26.2 for the first, ≤ 0.25 for the second.

WEEQ and GMKG cannot be ordered by enrichment ratio: ≤ 0.25 for the first, ≤ 0.25 for the second.

TNRG and ERHN cannot be ordered by enrichment ratio: ≤ 0.25 for the first, ≤ 0.25 for the second.

SSQK and DIGP cannot be ordered by enrichment ratio: ≤ 0.25 for the first, ≤ 0.25 for the second.

FRPD and MKMR cannot be ordered by enrichment ratio: ≤ 0.25 for the first, ≤ 0.25 for the second.

Compared with IHNC, TPFL is lower in enrichment ratio: 0.671 for the first, ≤ 0.25 for the second.

PHIS and RTFC cannot be ordered by enrichment ratio: ≤ 0.25 for the first, ≤ 0.25 for the second.

PWYA and HQVY cannot be ordered by enrichment ratio: ≤ 0.25 for the first, ≤ 0.25 for the second.

FDIC and IEIV cannot be ordered by enrichment ratio: ≤ 0.25 for the first, ≤ 0.25 for the second.

KKGP and LGTF cannot be ordered by enrichment ratio: ≤ 0.25 for the first, ≤ 0.25 for the second.

VRWR and FTSD cannot be ordered by enrichment ratio: ≤ 0.25 for the first, ≤ 0.25 for the second.

NGAA and IWEV cannot be ordered by enrichment ratio: ≤ 0.25 for the first, ≤ 0.25 for the second.

AHGY and PCHC cannot be ordered by enrichment ratio: ≤ 0.25 for the first, ≤ 0.25 for the second.

Going from AGLN to ADMD, the enrichment ratio falls from 5.75 to ≤ 0.25.

Compared with TAYL, LEWN is lower in enrichment ratio: 10.9 for the first, ≤ 0.25 for the second.

Going from TDMF to GCLC, the enrichment ratio rises from 5.69 to 6.46.

PSRE and KMSD cannot be ordered by enrichment ratio: ≤ 0.25 for the first, ≤ 0.25 for the second.

WSAK and KLYK cannot be ordered by enrichment ratio: ≤ 0.25 for the first, ≤ 0.25 for the second.

DFRT and AMET cannot be ordered by enrichment ratio: ≤ 0.25 for the first, ≤ 0.25 for the second.

LHTN and YWQM cannot be ordered by enrichment ratio: ≤ 0.25 for the first, ≤ 0.25 for the second.

FSMH gave an enrichment ratio of 0.307.
